Three compounds from PubChem BioAssay (EPA / NIEHS) can be followed below.

Structures are written as SMILES. For some of these results: Most of the hits are listed elsewhere, so they are rarer here than in the full data. This is a selection; strong and weak results do not stand in their true shares. Records with an inconclusive call do not appear. Activity calls are given as the source filed them. The calls were made as follows, unless noted: active = hit-call score of the fitted dose curve at least 0.9, where 1 is the maximum; inactive = score below 0.9.

Read-out in test [1]: Intercellular Adhesion Molecule 1 (ICAM1), ICAM1 (gene 3383)
The test is described as follows: BSK_3C_ICAM1: BioMAP Diversity Plus: 3C Assay for Intercellular Adhesion Molecule 1 (ICAM1) Biomarker Activity (AID 2283003). The settings on record: actives raise or lower the signal; primary human endothelial cells (HUVEC). The gist of the method:
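Using DMSO as baseline, bidirectional curve fitting was applied to ICAM-1 ELISA signals from HUVEC in the 3C system, measured 24 h after compound addition.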

Test [2] can be described thus: BSK_3C_Proliferation: Cell Proliferation Assessment in the BioMAP Diversity Plus: 3C Assay (AID 2283006).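 Also: potency may reflect either rise or fall in cell number versus DMSO.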 As to conditions: primary human endothelial cells (HUVEC). The gist of the method: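 Measured here: sulforhodamine B (0.1%) staining of TCA-fixed sub-confluent umbilical vein endothelial cultures 48 h post-dosing, absorbance 560 nm. DMSO served as negative control and baseline; both signal gain and loss were modelled.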

Read-out in test [3]: Plasminogen activator inhibitor-1 (PAI1), SERPINE1 (gene 5054)
The test is described as follows: BSK_BE3C_PAI1: BioMAP Diversity Plus: BE3C Assay for Plasminogen activator inhibitor-1 (PAI1) Biomarker Activity (AID 2283037). As to conditions: actives raise or lower the signal; primary human bronchial epithelial cells. The gist of the method:
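In this multiplexed primary-cell system, bronchial epithelial cells receive test chemical and are sampled at 24 h. PAI-1 is read by ELISA, with DMSO serving as negative control for bidirectional fitting.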

Read-out in test [4]: Thrombomodulin, THBD (gene 7056)
The experiment in a line: BSK_CASM3C_Thrombomodulin: BioMAP Diversity Plus: CASM3C Assay for Thrombomodulin Biomarker Activity (AID 2283051).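 Also: thrombomodulin protein level measured by ELISA 24 h after dosing.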 The settings on record: actives raise or lower the signal; primary human coronary artery smooth muscle cells.

Read-out in test [5]: Forkhead box O3 (FOXO3), FOXO3 (gene 2309)
The test is described as follows: LTEA_HepaRG_FOXO3: Life Technologies and Expression Analysis (LTEA) Assay for Forkhead box O3 (FOXO3) using HepaRG (AID 2283459). As to conditions: actives raise or lower the signal; mRNA level, 48 h. The gist of the method:
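FOXO3 transcript measured by qRT-PCR (normalized to ACTB, GAPDH, POLR2A) after 48 h exposure of HepaRG cells in serum-free induction medium. Duplicates, eight half-log concentrations up to 100 uM, 0.5% DMSO; gain or loss fitted against DMSO.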

Read-out in test [6]: Glutathione S-transferase M3 (GSTM3), GSTM3 (gene 2947)
The experiment in a line: LTEA_HepaRG_GSTM3: Life Technologies and Expression Analysis (LTEA) Assay for Glutathione S-transferase M3 (GSTM3) using HepaRG (AID 2283501). The settings on record: actives raise or lower the signal; mRNA level, 48 h. The gist of the method:
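GSTM3 transcript levels came from Fluidigm TaqMan qRT-PCR normalized to three housekeeping genes, fitted in both directions against DMSO. HepaRG cultures received chemicals for 48 h in serum-free induction medium (0.5% DMSO), 8 half-log concentrations up to 100 uM, duplicate.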

Test [7] is described as follows: CCTE_Simmons_MITO_basal_resp_rate: CCTE's HepG2 Seahorse XF Respirometric Screening Assay at Basal Respiratory State, Simmons Lab (AID 2284001). As to conditions: actives raise or lower the signal. The gist of the method: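 Basal-phase OCR in HepG2 cells, read at 6-min intervals across a 72-min run, with test compound injected at 125 nM–100 uM final (7 points). Fitted both directions against DMSO; three biological replicates per concentration.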

Test [8] addresses human Peroxisome Proliferator-activated Receptor alpha (PPARa), PPARA (gene 5465) (UniProt Q07869). The test is described as follows: ATG_PPARa_TRANS: Attagene TRANS-FACTORIAL HepG2 Assay for human Peroxisome Proliferator-activated Receptor alpha (PPARa) (AID 2283001; active = hit-call score of the fitted dose curve at least 0.9, where 1 is the maximum). The gist of the method:
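Transfected HepG2 cells treated with test chemical for 24 h. RNA isolated, reverse-transcribed with oligo(dT), PCR-amplified, FAM-labelled and HpaI-digested. Fragments sized by capillary electrophoresis; gain-of-signal fit relative to DMSO.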

Test [9] addresses Nuclear receptor subfamily 1 group I member 2 (Homo sapiens) (UniProt O75469). The experiment in a line: ATG_PXR_TRANS: Attagene TRANS-FACTORIAL HepG2 Assay for human Pregnane X Receptor (PXR) (AID 2283008; active = hit-call score of the fitted dose curve at least 0.9, where 1 is the maximum). The gist of the method: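 Transient HepG2 transfectants carrying multiplexed reporter transcription units; PXR activity read through a Gal4 chimera. 24 h exposure. RT-PCR/CE fluorescence; upward curve fit referenced to DMSO.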

Test [10] is described as follows: CCTE_Shafer_MEA_dev_active_electrodes_number: CCTE's Neural Network Formation Assay for Number of Active Electrodes, Shafer Lab (AID 2284040; active = hit-call score of the fitted dose curve at least 0.9, where 1 is the maximum;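 also: potency for loss of active electrodes versus DMSO so lower counts are hits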). The gist of the method: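 Developing rat cortical networks on MEAs, exposed DIV 0–12. Value is the AUC of active-electrode counts (≥5 spikes/min) from days 5, 7, 9, 12, relative to DMSO.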

UniProt Q07869, sequence (Q07869 whole entry, looked up, the tested form may be a part): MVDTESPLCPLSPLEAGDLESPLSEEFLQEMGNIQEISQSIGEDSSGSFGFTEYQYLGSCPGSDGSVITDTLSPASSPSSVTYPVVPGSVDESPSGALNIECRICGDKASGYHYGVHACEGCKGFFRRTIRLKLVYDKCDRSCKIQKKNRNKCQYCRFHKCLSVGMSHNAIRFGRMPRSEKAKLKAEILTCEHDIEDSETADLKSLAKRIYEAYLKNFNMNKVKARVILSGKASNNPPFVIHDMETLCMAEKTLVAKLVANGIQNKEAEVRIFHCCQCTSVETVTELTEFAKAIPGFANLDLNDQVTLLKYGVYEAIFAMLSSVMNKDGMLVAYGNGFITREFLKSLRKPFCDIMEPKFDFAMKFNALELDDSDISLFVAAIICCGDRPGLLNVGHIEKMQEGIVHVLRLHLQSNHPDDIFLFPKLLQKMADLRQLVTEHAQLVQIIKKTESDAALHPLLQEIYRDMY
UniProt O75469, sequence (O75469 whole entry, looked up, the tested form may be a part): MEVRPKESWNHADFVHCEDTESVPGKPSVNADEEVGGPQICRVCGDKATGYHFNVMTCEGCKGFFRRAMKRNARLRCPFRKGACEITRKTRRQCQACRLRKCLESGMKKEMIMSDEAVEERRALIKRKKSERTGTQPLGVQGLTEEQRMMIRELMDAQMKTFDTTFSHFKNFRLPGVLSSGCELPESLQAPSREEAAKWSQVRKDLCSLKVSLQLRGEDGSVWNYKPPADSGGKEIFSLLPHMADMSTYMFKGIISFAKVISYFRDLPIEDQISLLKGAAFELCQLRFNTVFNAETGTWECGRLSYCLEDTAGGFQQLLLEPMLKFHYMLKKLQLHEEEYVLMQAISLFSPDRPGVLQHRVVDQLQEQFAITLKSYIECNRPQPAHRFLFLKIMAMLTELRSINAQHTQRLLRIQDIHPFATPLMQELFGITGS

With `Oc1cc(Cl)c(Cl)cc1Cl`, the outcome in test [1], in test [4], in test [5] and in test [6] was inactive. The AC50 is active: 26 µM in test [2], active: 33.4 µM in test [3] and active: 11.5 µM in [7].

Turning to `N#Cc1ccccn1`, in test [8], the result was inactive.

Take `CC(C)COC(=O)c1ccccc1C(=O)OCC(C)C`: the compound was called inactive in test [9]. Also, in test [10], the AC50 was active: 13.6 µM.

One may read the AC50 as the concentration giving half of the maximal activity seen.
